# PubChem BioAssay AID1745845 (National Center for Advancing Translational Sciences (NCATS), 2022)
# “And” between values parts separate entries of the source, which are not always exact repeats. Equal entries are not always repeated. Among all 360,000 compounds or so, about 2,600 (0.72%) were called active. Inconclusive results, whose numbers are uncertain, are shown with a selection of clear calls. Calls follow the shape of the dose curve; as a rule, active = well fitted inhibition curve with a large enough effect; inconclusive = small, poorly fitted or top-dose-only effect; inactive = no such curve, though single readings can be large or run the other way. Where the call is inconclusive, the potency comes from a doubtful curve fit.
# Assay: Primary qHTS for Inhibitors of ATXN expression; also: nearly all actives have a fitted effect of over 55% in size
# Conditions: HEK-293 ATXN2-luciferase reporter, luminescence, 24 h; activity change, negative = inhibition: at 57 µM (top of the series)
# In short: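 ATXN2-luciferase reporter cells (luciferase flanked by upstream and downstream ATXN2 gene portions) were treated 24 h at 37 °C with compounds at up to 57 uM. SteadyGlo luminescence gave expression; GF-AFC fluorescence gave viability.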
# % is scaled to controls: 0 for no effect and ±100 for the full control effect; potency is read from the fitted curve at half-maximal effect; tags tell the direction and shape of the fitted curve.
Structure (SMILES),Potency,"activity change, negative = inhibition"
Cc1cccc(NC(=O)CSc2nc3ccccc3c3nc(CCc4c(C)n[nH]c4C)nn23)c1,"active: 31.6 µM and inconclusive: 35.5 µM [inhibitor, single point]",–
Cc1cc2nn(-c3ccc(F)cc3)nc2cc1N,–,inactive: -4.6%
COc1ccccc1-c1nc(S(=O)(=O)c2ccccc2)c(N2CCC(C)CC2)o1,–,inactive: -21.8%
CC(NC(=O)C1CCN(S(=O)(=O)c2ccc3c(c2)oc(=O)n3C)CC1)c1ccccc1 (configuration not stated),–,inactive: -2.14%
CCOC(=O)c1c(C)oc2ncnc(N3CCN(c4ccccc4)CC3)c12,"inconclusive: 15.8 µM [inhibitor, single point]",–
COc1ccc(CN=C2NN=C(c3ccccc3)CS2)cc1,–,inactive: 12.5%
COc1ccc(C(=O)NC(C)CCc2ccccc2)c(O)c1 (configuration not stated),–,inactive: 12.8%
CCCCCCCCn1c2c(c(=N)c3ccccc31)CCC2,active: 7.52 µM,–
CCOC(=O)N1CCN(C(=O)CCNS(=O)(=O)c2ccccc2)CC1,–,inactive: 1.54%
Cn1cnc([N+](=O)[O-])c1Sc1nc2ccccc2[nH]1,"inconclusive: 37.7 µM [inhibitor, single point]",–
CC(NNC(=S)N1CCN(c2ccccn2)CC1)c1nccc2ccccc12 (configuration not stated),"inconclusive: 0.106 µM [inhibitor, partial curve, poor fit]",–
CC(C)c1cc(C(=O)NNC(=S)NCc2ccco2)c(O)c(C(C)C)c1,"inconclusive: 35.5 µM [inhibitor, partial curve, poor fit]",–
Cc1ccc(C)c(-n2cc(-c3ccccc3)nc2SCC(=O)Nc2ccccc2)c1,–,inactive: -13.2%
O=C(Nc1ccc(N2CCN(C(=O)c3ccco3)CC2)cc1)c1cc(Br)ccc1Cl,"inconclusive: 22.4 µM [inhibitor, partial curve, poor fit]",–
COc1cc(C(C)=O)ccc1OCC(O)CN1CCN(c2c(C)cccc2C)CC1 (configuration not stated),"inconclusive: 39.8 µM [inhibitor, partial curve, poor fit]",–
O=C1Nc2c(Br)cc(Br)c3cccc1c23,"inconclusive: 14.1 µM [inhibitor, partial curve]",–
CCC1=C(c2ccc(OC)cc2)CCC(C(=O)O)C1C (configuration not stated),–,inactive: 0.174%
CNc1nc(Nc2ccc(C)cc2C)c2sccc2n1,–,inactive: -30.5%
Cc1cc(N)n(-c2ncnc3scc(-c4ccc(Cl)cc4)c23)n1,–,inactive: 1.25%
Cc1c(CN(C)C(=O)c2sc3cc(Cl)ccc3c2Cl)cnn1C,–,inactive: -23.5%
CCOC(=O)N(C)C[C@H]1OCc2cnnn2CCCC(=O)N([C@@H](C)CO)C[C@H]1C,–,inactive: 9.99%
Cc1ccc(CN2CCCn3nc(C(=O)NCc4cc(C)ccc4C)cc3C2=O)cc1,–,inactive: -24.2%
CCCSc1nc2cc(OC)c(OC)cc2c(=N)n1CCCN1CCOCC1,"inconclusive: 6.7 µM [inhibitor, partial curve, poor fit]",–
CCc1ccc(C(=O)COC(=O)c2cccc(N3C(=O)c4c(C)nc5ccccc5c4C3=O)c2)cc1,"inconclusive: 17.8 µM [inhibitor, partial curve]",–

Structure (SMILES),Potency,"activity change, negative = inhibition"
O=C(O)c1ccc(-c2nc(-c3ccccc3Cl)cs2)cc1,–,inactive: 41.3%
O=C(Cc1c[nH]c2ccccc12)Nc1nc2ccccc2[nH]1,–,inactive: 30.3%
CCN(CCO)Cc1csc2ccc(Cl)cc12,–,inactive: 7.33%
Cc1cc(OCC(=O)N2CCN(c3cccc(Cl)c3)CC2)c2c(C)c(C)c(=O)oc2c1,"inconclusive: 10 µM [inhibitor, partial curve, poor fit]",–
Cc1cc(C)c2nc(N3CCC(C(=O)N4CCN(c5ncccn5)CC4)CC3)sc2c1,"inconclusive: 12.6 µM [inhibitor, partial curve, poor fit]",–
CC1=NN(c2ccccc2)C(=O)/C1=C/C=C/c1ccccc1,"inconclusive: 39.8 µM [inhibitor, single point]",–
CCCCN(CC)Cc1ccc(CNC(=S)Nc2ccc(C)cc2Cl)o1,"inconclusive: 11.2 µM [inhibitor, partial curve]",–
CCc1nc(Nc2ccc3c(c2)OCCO3)c2oc3ccccc3c2n1,"inconclusive: 39.8 µM [inhibitor, partial curve, poor fit]",–
N#C/C(=C1/SC[C@@H](c2ccc(Cl)cc2Cl)S1)n1ccnc1,"inconclusive: 31.6 µM [inhibitor, single point]",–
CCc1nc2ccc(C(=O)Nc3cc(-c4ccccc4)ccc3OC)cn2c1N(CC)CCN(C)C,"inconclusive: 39.8 µM [inhibitor, single point]",–
N/C(=N\NC(=O)c1ccccc1Cl)c1cc2ccccc2oc1=O,–,inactive: 18.4%
C[C@]12c3[nH]c4cc(-c5ccco5)ccc4c3CCN1C(=O)[C@@H](CC(=O)NCc1ccco1)C[C@@H]2C(=O)N1CCCCC1,"inconclusive: 39.8 µM [inhibitor, single point]",–
Nc1ccc2nc(-c3ccc(O)cc3)sc2c1,–,inactive: 0%
COc1ccc(NC(=O)CC2C(=O)N(c3ccc(F)cc3)C(=O)N2CCc2sccc2C)cc1 (configuration not stated),"inconclusive: 28.2 µM [inhibitor, partial curve, poor fit]",–
COc1ccc(OC)c(NC(=O)Nc2nc(C(N)c3ccccc3Cl)cs2)c1 (configuration not stated),"inconclusive: 25.1 µM [inhibitor, single point]",–
OC(CNCCc1ccc(Cl)cc1)COc1cc(Cl)ccc1Cl (configuration not stated),"inconclusive: 39.8 µM [inhibitor, single point]",–
Nc1nc(=O)n(C2CC(O)C(CO)O2)cc1Cl (configuration not stated),–,inactive: 4.74%
COCCNC(=O)c1cccc(Nc2nc(-c3ccccc3)c3cc(Cl)ccc3n2)c1,"inconclusive: 28.2 µM [inhibitor, single point]",–
CC1(C)OC(=O)N(c2ccccc2)C12C=Cc1cc(Br)ccc1O2 (configuration not stated),"inconclusive: 12.6 µM [inhibitor, partial curve, poor fit]",–
COc1ccc(-c2cc(C(F)(F)F)nc(NCc3cccnc3)n2)cc1,"inconclusive: 14.1 µM [inhibitor, partial curve, poor fit]",–
CC(C)=CCc1c(O)cc(O)c2c(=O)c3c(CC=C(C)C)c(O)ccc3oc12,"inconclusive: 39.8 µM [inhibitor, single point]",–
COc1cccc2cc(-c3nc(-c4cccs4)cs3)c(=O)oc12,–,inactive: 53%
CCCC[C@@H]1CNC(=S)N1CCc1cccc2ccccc12,"inconclusive: 31.6 µM [inhibitor, partial curve, poor fit]",–
Cc1noc(C)c1CSc1ccccc1C(=O)N1CCN(c2ccccc2)CC1,–,inactive: -8.43%

Structure (SMILES),Potency,"activity change, negative = inhibition"
CCOC(=O)c1c(CSc2ccccc2)n(C)c2cc(Br)c(OCC(O)CNC(CO)(CO)CO)cc12 (configuration not stated),"inconclusive: 28.2 µM [inhibitor, single point]",–
Cc1cccc(N2C(=O)/C(=C\c3ccc(C(=O)O)cc3)c3ccccc3C2=O)c1,–,inactive: -5.1% [at 11.3 µM]
CCOc1cc(-c2c(C#N)c(N)nc3c2CCc2ccccc2-3)ccc1O,–,inactive: 43.2%
Cc1ccsc1C(=O)OCC(=O)N1CCN(c2ccccc2)CC1,–,inactive: 26.8%
COc1ccc(-c2nn(-c3ccccc3)cc2/C=N/NC(=O)c2ccc(Br)o2)cc1,"inconclusive: 25.1 µM [inhibitor, single point]",–
CCOC(=O)C1=C(N)Oc2ccc(Br)cc2C1C(C#N)C(=O)OCC (configuration not stated),"inconclusive: 43.2 µM [inhibitor, partial curve, poor fit]",–
COc1cc(NS(=O)(=O)c2ccc(C)cc2)c2ncccc2c1,active: 4.47 µM,–
CCC1=Nc2cc(C(=O)NCc3ccco3)ccc2Sc2ccc(Cl)cc21,–,inactive: 4.4%
COc1ccc2c(Sc3ccc(Cl)cc3)c(C(=O)N3CCC(C)CC3)[nH]c2c1,"inconclusive: 31.6 µM [inhibitor, single point]",–
CC1(C)Cc2c(sc3[nH]c(=S)n(Cc4ccccc4)c(=O)c23)CO1,"inconclusive: 15.8 µM [inhibitor, partial curve, poor fit]",–
CCOC(=O)N1CCC(N2C(=O)c3ccccc3C2Nc2cc(C(=O)OC)cc(C(=O)OC)c2)CC1 (configuration not stated),–,inactive: -0.234%
CC(C)C[C@H]1CNC(=S)N1C[C@H]1CCCN1C[C@H](Cc1ccccc1)N1C[C@H](Cc2ccc(O)cc2)N(CCc2ccccc2)C1=S,"inconclusive: 39.8 µM [inhibitor, single point]",–
COc1ccc(CC(=O)Nc2nc(-c3ccc(OC)c(OC)c3)cs2)cc1OC,active: 22.4 µM,–
Cc1nc(-c2ccc(S(=O)(=O)N3CCN(c4cc(Cl)ccc4C)CC3)cc2)co1,–,inactive: 1.49%
O=C(c1ccc(F)cc1)n1nc(-c2cccnc2)nc1NCc1ccc(F)cc1,–,inactive: -11.6%
Cn1cccc1-c1nc2ccccc2n1Cc1ccccc1,–,inactive: -16.3%
CCOC(=O)c1cn2nc(N3CCCCC3)ccc2n1,"inconclusive: 14.1 µM [inhibitor, single point]",–
Cc1ccc(S(=O)(=O)Nc2nc3ccccc3nc2Nc2ccc3nsnc3c2)cc1,"inconclusive: 15 µM [inhibitor, single point]",–
O=C(c1cc(COc2ccc(F)cc2Cl)on1)N1CCCCC1c1cccnc1 (configuration not stated),"inconclusive: 35.5 µM [inhibitor, partial curve, poor fit]",–
COCC(=O)OCC(=O)N1N=C(c2ccc(Cl)cc2)CC1c1ccco1 (configuration not stated),–,inactive: -13.6%
CCOc1ccc(NC(=O)Cn2nnc(C(=O)NCCc3ccccc3)c2N)cc1,–,inactive: -16.1%
COc1ccc(CNc2ccc3c(c2)nc(C)n3C)cc1OC,–,inconclusive: -43.5% [inhibitor]
CCOc1ccc2nc(NC(=O)c3ccc(OC)c(S(=O)(=O)N4CCOCC4)c3)sc2c1,"inconclusive: 11.2 µM [inhibitor, partial curve, poor fit]",–
Cc1cc(C)n(-c2ccc(C(=O)N3CCN(S(=O)(=O)c4cccc(Br)c4)CC3)cc2)n1,"inconclusive: 14.1 µM [inhibitor, partial curve, poor fit]",–
